Source: PubChem BioAssay AID488969 (Vanderbilt High Throughput Screening Facility, 2010)
In all, about 110,000 compounds were measured (“z-score”: median about -0.1, highest 2% from about 2 on). The list shows a part of the results. Calls of active or inactive are those of the source.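 The calls were made as follows: active = z-score in the third read window above 3 or below -3; inactive = the rest.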

target: Metabotropic glutamate receptor 8 (Rattus norvegicus) (UniProt P70579); assay: rat mGluR8 modulators via GIRK flux, primary screen, cell-based, thallium flux, HTS (AID 488969); conditions: HEK293 rat mGluR8, GIRK (G protein-gated inwardly rectifying potassium channel) thallium flux, FluoZin2; at 10 µM; stronger effect = higher value
Chain of UniProt P70579 (P70579 whole entry, looked up): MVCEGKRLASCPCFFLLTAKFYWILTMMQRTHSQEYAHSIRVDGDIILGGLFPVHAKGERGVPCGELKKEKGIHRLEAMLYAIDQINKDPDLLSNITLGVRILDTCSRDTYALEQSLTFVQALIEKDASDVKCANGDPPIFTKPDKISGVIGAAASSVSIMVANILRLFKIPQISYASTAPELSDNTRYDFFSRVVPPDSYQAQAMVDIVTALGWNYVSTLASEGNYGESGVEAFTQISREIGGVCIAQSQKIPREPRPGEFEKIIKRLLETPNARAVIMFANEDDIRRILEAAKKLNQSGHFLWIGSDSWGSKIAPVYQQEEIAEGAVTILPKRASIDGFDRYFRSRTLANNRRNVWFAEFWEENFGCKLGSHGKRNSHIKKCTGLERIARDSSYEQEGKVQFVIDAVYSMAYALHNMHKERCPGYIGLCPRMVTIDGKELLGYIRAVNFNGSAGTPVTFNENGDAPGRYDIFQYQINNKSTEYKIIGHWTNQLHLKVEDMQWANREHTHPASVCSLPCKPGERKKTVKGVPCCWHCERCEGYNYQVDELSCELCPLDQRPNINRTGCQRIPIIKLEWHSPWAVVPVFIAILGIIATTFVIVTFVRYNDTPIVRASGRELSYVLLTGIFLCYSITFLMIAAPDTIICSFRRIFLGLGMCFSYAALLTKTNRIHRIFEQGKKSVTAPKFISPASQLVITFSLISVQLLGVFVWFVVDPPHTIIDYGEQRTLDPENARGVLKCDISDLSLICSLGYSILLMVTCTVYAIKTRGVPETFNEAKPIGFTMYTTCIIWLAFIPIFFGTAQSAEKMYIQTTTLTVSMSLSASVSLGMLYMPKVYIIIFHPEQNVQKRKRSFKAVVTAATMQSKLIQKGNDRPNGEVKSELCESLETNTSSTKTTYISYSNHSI

SMILES | z-score
N=c1c[n+](CC23CC4CC(CC(C4)C2)C3)[n-]o1 | 2.09
C=CCN1C(=O)/C(=C/c2cccs2)C(=O)NC1=S | 0.723
Cc1ccc(S(=O)(=O)Cc2ccc(C(=O)N3CCC4(CC3)OCCO4)o2)cc1 | 0.786
CCC(=NCCC(c1ccccc1)c1ccccc1)c1c(O)n(C)c(=O)n(C)c1=O | -0.433
COc1cc(/C=C2\C(=O)NC(=O)N(CCc3ccc(F)cc3)C2=O)ccc1O | -0.256
CCCCP(=O)(O)c1ccccc1 | -0.197
COc1ccc(CCC(C)NCCc2ccccc2)cc1 (configuration not stated) | 0.71
CN(C)CP(=O)(O)CN(C)C=O | -0.0986
N/C(=N\N=C/c1ccc(-c2ccc(O)c(C(=O)O)c2)o1)N[N+](=O)[O-] | 0.363
Cc1cccc2c1N(N=O)CCC2 | -0.139
CSCCC(N=Cc1c(O)n(-c2ccc(Cl)cc2)c(=O)[nH]c1=O)C(=O)OC(C)(C)C (configuration not stated) | -1.03
O=C(C1CCC(=O)N1Cc1ccccc1Cl)N1CCC2(CC1)OCCO2 (configuration not stated) | -0.0696
COP(=O)(OC)C(NC(=O)C(C)(C)C)=C(Cl)Cl | -0.459
O=C(CSc1ccccc1)N1CCC2(CC1)OCCO2 | 1.36
CCSc1cc(C2C(C#N)=C(N)Oc3n[nH]c(C)c32)c(C)o1 (configuration not stated) | -2.21
CCC(=NCCC(c1ccccc1)c1ccccc1)c1c(O)[nH]c(=O)[nH]c1=O | -1.43
CC(NC1CCCCC1)C(O)C12CC3CC(CC(C3)C1)C2 (configuration not stated) | 2.39
CN1CCc2nc(N)c(C#N)c(-c3ccccc3)c2C1 | 0.0811
CCC1(c2ccccc2)C(=O)N(C)C(=O)N(C)C1=O | -0.323
CN(C)CC1CSCCC1(O)c1ccc(Cl)cc1 (configuration not stated) | -0.0309
CN1CCN(C(=O)COc2ccc(C(C)(C)C)cc2Br)CC1 | -0.545
Brc1ccc2c(c1)C(OC1CN3CCC1CC3)c1ccccc1CS2 (configuration not stated) | 1.72
COc1cccc(NC(=O)N2CCC3(CC2)OCCO3)c1 | -0.0285

SMILES | z-score
O=C(Cc1ccccc1)OCCNC(=O)c1cccnc1 | -0.0445
COc1ccc(C2SCC(=O)Nc3c2c(C)nn3-c2ccccc2)cc1OC (configuration not stated) | 0.0147
OC1(c2cccnc2)CC2CCC(C1)N2Cc1nnnn1Cc1ccccc1 (configuration not stated) | -0.142
C=CCn1c(O)c(C(C)=NCCN2CCOCC2)c(=O)[nH]c1=O | 1.5
CC(C)c1ccc(N2C(=O)NC(=O)/C(=C/C=C/c3ccco3)C2=O)cc1 | 0.083
CN(C(=O)c1ccco1)C1(c2ccccc2Cl)CCCCC1=O (configuration not stated) | 0.733
CCN1CCN(C(=O)COc2cc(=O)n(CC)c3ccccc23)CC1 | -0.283
Cc1ccc(-n2c(O)c(C=Nc3ccc(S(=O)(=O)N(C)C)cc3)c(=O)[nH]c2=O)cc1 | -0.2
CCN1CCN(Cc2cc(C(C)(C)C)c(O)c(C(C)(C)C)c2)CC1 | 0.295
CCCS(=O)(=O)N1CCCC(C(=O)N2CCC3(CC2)OCCO3)C1 (configuration not stated) | 0.0755
O=C(C1CC(c2ccccc2O)=NO1)N1CCC2(CC1)OCCO2 (configuration not stated) | -0.0752
CCn1ncc(/C=C2/CC3C4CC=C5CC(O)CCC5(C)C4CCC3(C)C2=O)c1C (configuration not stated) | 0.507
Cc1csc(=N)n1Cc1ccccc1 | -0.24
Cc1cccc(N2CCN(CCc3ccccc3)CC2)c1C | 0.0162
Nc1ccc(C2(c3ccc(N)cc3)CN3CCC2CC3)cc1 | -0.105
O=C1N=c2ccccc2=C/C1=C\c1c(O)[nH]c(=S)[nH]c1=O | -0.815
COC(=O)CC1=C(C(=O)OC)C2(C(=O)Nc3c(C)cccc32)C(C#N)=C(N)O1 (configuration not stated) | -0.267
Cn1c(O)c(C(c2ccncc2)c2c(O)n(C)c(=S)n(C)c2=O)c(=O)n(C)c1=S | 0.225
COc1ccc(C(C)=O)cc1CC(C(=O)c1ccccc1)N(C)C (configuration not stated) | -0.686
CC12CN3CC(C)(CN(C1)C3c1cccnc1)C2=O (configuration not stated) | 0.227
O=C(CN1C(=O)CN=C(c2ccccc2Cl)c2cc(Cl)ccc21)NCc1ccco1 | 2.98
CCN1CCN(C(=O)Cc2coc3cc(C)cc(C)c23)CC1 | 0.139
CCN1CCN(Cc2cc(Br)cc(OC)c2O)CC1 | -0.164

SMILES | z-score
CSc1ncc(Cl)c(C(=O)O)n1 (tested in a mixture with another compound) | -0.123
O=c1[nH]c(=O)n(Cc2ccccc2)c(O)c1C=Nc1ccc(CN2CCOCC2)cc1 | -0.0494
CCCCn1c(O)c(C(CC)=NC(C)c2ccccc2)c(=O)[nH]c1=O (configuration not stated) | -0.813
CN1CCN(c2ccc(S(=O)(=O)C(F)(F)F)cc2[N+](=O)[O-])CC1 | -0.308
Fc1ccccc1N1CCN(Cc2c(F)cccc2F)CC1 | 0.122
CCCCCSc1cc(OC)c(CCNC)cc1OC | 0.115
CC(C)NC(C)C(=O)C12CC3CC(CC(C3)C1)C2 (configuration not stated) | 0.115
O=C(N/N=C1/CN2CCC1CC2)c1cc2ccccc2cc1O | 0.139
CNC(=O)OCCc1nccn1C | active: 3.02
O=C1NC(=O)C(=Cc2ccc(OCC(=O)N3CCOCC3)cc2)C(=O)N1 | -0.179
CCOC(=O)c1sc(N=Nc2c(O)[nH]c(=O)[nH]c2=O)c(C(=O)OCC)c1C | -0.194
CN1CCN(c2ccc(N)c(N3CCN(C)CC3)c2)CC1 | -0.575
CN1CCN(c2ccc(C=O)cc2)CC1 | 0.242
COc1ccc(CCn2c(O)c(/C=N/N3CCCCC3)c(=O)[nH]c2=O)cc1OC | 0.0321
CCCNC(=O)N1C2CCC1CC(O)(c1cccnc1)C2 (configuration not stated) | 0.154
CC1(C)CN=C(NCc2ccccc2Cl)S1 | 1.62
O=C(Nc1ccc(Cl)cc1)O/N=C(\c1ccccc1)c1ccccn1 | -0.375
CCCCCCC(=O)c1c(O)n(-c2ccccc2OC)c(=O)[nH]c1=O | 0.949
Cn1ccnc1P(=S)(c1nccn1C)c1nccn1C | 0.528
FC(F)(F)c1ccc2c(c1)N(CCCN1CCN(CCCl)CC1)c1ccccc1S2 | -0.54
Cc1c(Cl)cccc1NC(=S)N1CC2CC(C1)c1cccc(=O)n1C2 (configuration not stated) | -0.341
COc1ccc(/C=C/C(=O)c2c(O)n(CCC3=CCCCC3)c(=O)[nH]c2=O)cc1 | -0.436
Cc1cccc(-n2c(O)c(C=NCCCN3CCOCC3)c(=O)[nH]c2=O)c1C | 0.107

SMILES | z-score
COc1cc(/C=N/NC(=O)Cn2c([N+](=O)[O-])cnc2C)ccc1OC(=O)N(C)C | -0.315
O=C1CN=C(c2ccccc2)c2cc(Br)ccc2N1Cc1cc(=O)n2ccccc2n1 | -0.21
C=CCn1c(O)c(C(C)=NCc2cccnc2)c(=O)[nH]c1=O | 0.323
CC(CO)(CO)N=Cc1c(O)n(-c2cccc3ccccc23)c(=O)[nH]c1=O | -0.583
COc1ccccc1C1=NCc2nnc(C)n2-c2ccc(Cl)cc21 | 0.478
CC1(C)CC(=O)C(C=NCCN2CCN(C(=O)Cc3ccccc3)CC2)=C(O)C1 | -0.0124
O=c1[nH]c(=S)n(-c2ccc(Br)cc2)c(O)c1C=Nc1ccc(N2CCOCC2)cc1 | -0.456
CCCCn1c(O)c(/C=C/C=Nc2ccccc2)c(=O)[nH]c1=O | -2.18
C=CCN1C(=O)NC(=O)/C(=C/c2cc3c4c(c2)CCCN4CCC3)C1=O | -0.594
CNC(=O)Oc1ccc2c(c1)C(=O)c1ccccc1CO2 | -0.329
O=[N+]([O-])c1ccc(N2CCCC2)c(F)c1Br | -1.46
Cc1ccc2c(c1)C1CN(C)CCC1N2C(=O)Nc1cccc(Cl)c1 (configuration not stated) | 1.44
COc1ccc(CC2C(=O)NC(=O)NC2=O)c(OC)c1 | active: 13.6
CN(C)CCCN=Cc1c(O)n(CCc2ccccc2)c(=O)[nH]c1=O | 0.135
O=C(Nc1ccc(Cl)cc1C(=O)c1ccccc1)c1ccco1 | -0.412
CCN1C(=O)c2ccccc2Sc2ccc(C(=O)N3CCC4(CC3)OCCO4)cc21 | -0.937
COc1ccc(CC2C(=O)N(c3ccccc3)C(=O)N(c3ccccc3)C2=O)c(OC)c1 | -0.0175
CCOC(=O)c1c(C)n(CCOC)c2ccc(O)cc12 | 0.821
CCCCC(=O)N/N=C/c1c(O)n(Cc2ccco2)c(=O)[nH]c1=O | -0.0422
CC12CN3C(O)C(C)(C1)CC(C)(C2)C3O (configuration not stated) | -0.0787
CN(C)CCc1nn[nH]n1 | 0.148
CC(=O)C1(c2ccccc2)CCNCC1 | 0.3
CC1CCC(NCCc2ccc3c(c2)OCO3)CC1 (configuration not stated) | 0.00241

SMILES | z-score
O=C(c1ccccc1)c1cn(CC(=O)N2CCCc3ccccc32)c2ccccc12 | -1.09
O=C(Cn1cc(C(=O)c2ccccc2F)c2ccccc21)NCc1ccco1 | -0.941
COC(=O)c1ccc(-n2c(C)nc3ccccc3c2=O)cc1 | -0.262
CC(C(=O)Nc1ccc(Cl)cc1Cl)N1CC=C(c2ccccc2)CC1 (configuration not stated) | 0.37
Cc1ccc(Cn2cc(C=O)c(-c3ccc(C)cc3)n2)cc1 | -0.11
Cc1ccc(Cc2c(C)nc3nc(SCC(=O)N4CCC5(CC4)OCCO5)nn3c2C)cc1 | -0.0184
CCN(CC)C1=NC(=[N+](CC)CC)c2ccccc21 | 0.0677
CN(C)C(=O)Oc1ccc(OCc2cccc[n+]2C)cc1 | -0.0662
CN(C)c1nc(-c2ccccc2)[n+](C)s1 | 0.0804
CCN(CC)c1ccc(N=Cc2c(O)n(CCc3ccc(OC)c(OC)c3)c(=O)[nH]c2=O)cc1 | -0.148
Nc1ccc(N2CCN(Cc3ccccc3Cl)CC2)c(Cl)c1 | 0.0509
Cc1nn(Cc2ccccc2)c(C)c1C(=O)OCC(=O)NC1CCS(=O)(=O)C1 (configuration not stated) | -0.151
CCOP(=O)(OCC)C(NC(=O)C(Cl)Cl)C(Cl)(Cl)Cl (configuration not stated) | -0.137
CC(=C1C(=O)c2ccccc2C1=O)N1CCN(CCN=Cc2c(O)n(C)c(=O)n(C)c2=O)CC1 | 0.436
CCOc1ccc(CC2C(=O)NC(=O)N(c3ccc(CC)cc3)C2=O)cc1 (configuration not stated) | -0.531
O=C(CNC(=O)OCc1ccccc1)Nc1ccc(Br)cc1C(=O)c1ccccc1Cl | -0.196
CC(C(=O)c1cn(C)c2ccccc12)c1ccccc1 (configuration not stated) | -0.202
CN1CCCC1C(O)(c1ccccc1)c1ccccc1 (configuration not stated) | -0.0177
CCCCN1C(=O)/C(=C/c2ccc(N3CCCCCC3)cc2)C(=O)NC1=S | -0.0524
CCC(=O)N1c2ccc(S(=O)(=O)CCC(=O)N3CCC4(CC3)OCCO4)cc2CC1C (configuration not stated) | 0.00521
